This note sets out measurements from the supplement of paper PMC11417369.

The list shows a part of the results.

This test has as its system PfSIP2 AP2 domain 1 (GST-tagged). Briefly: gcPBM binding intensity (ln(normalized median fluorescence intensity)); higher = stronger DNA binding. A digest of the protocol:
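GST-fused DNA-binding domains of P. falciparum, expressed in E. coli, were applied at about 25 μg on average for 1 h to an Agilent 4 × 180k array of primer-extended double-stranded 36-bp intergenic genomic probes and negative controls. Binding intensity is the highest Masliner-normalised natural-log median intensity across replicate spots of either probe orientation, measured with Alexa488 anti-GST antibody and a 488 nm scan.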
For “TTTTATTTTTGTTGGTCCCTCATTTAAGTTAATAAA [TGCATGCA_negctrl_site465]”, the “gcPBM binding intensity (ln)” value was 7.22.

Consider “ATATTGATTTGTGGCACACATATAATATATTCCTAT [CACACA_site3046]”, for which the “gcPBM binding intensity (ln)” value was 6.91.

On to “TTTTCAATATATATATGCTGAATTTATAATTTGTAT [CACACA_negctrl_site1774]”, for which the “gcPBM binding intensity (ln)” value is 6.89.

Turning to “TGAATAATAAAAAATACACACACATATATATATATT [CACACA_site9146]”, the “gcPBM binding intensity (ln)” value worked out at 7.02.

With “ATATATACATACATATGTACATATGTAGATATATTT [XGTACX_site1230]”, the “gcPBM binding intensity (ln)” value was 7.19.

As to “ATTTTTTTTGTTTATTCTTATGTGGTTATTAAATTA [CACACA_negctrl_site1000]”, the “gcPBM binding intensity (ln)” value is 7.44.

On to “ATTATGAAATATCGTGCACACACGAATAATATAAGA [CACACA_site1294]”, for which the “gcPBM binding intensity (ln)” value stood at 9.15.

On to “TATTTGTTTAAATTCACACACGTATATATATTTATA [CACACA_site5651]”, for which the “gcPBM binding intensity (ln)” value turned out to be 7.17.

For the sequence “TACGTTTTAAAACACACACACAAAAAAAAAAAAAAA [CACACA_site3876]”, the “gcPBM binding intensity (ln)” value is 7.01.

On to “AAAAGAGAAATGGGCACACACACACCCATTATATAT [CACACA_site1530]”, for which the “gcPBM binding intensity (ln)” value was 6.88.

“ATTTTTATATATATCTGTACTAAAAAAAAAAAAAAA [XGTACX_site5258]”: the “gcPBM binding intensity (ln)” value came out at 7.1.

As for “AGAAGTAAAAAAATAGCACACACACTAATACCAACA [CACACA_site8354]”, the “gcPBM binding intensity (ln)” value is 7.22.

On to “AAACAAAAAAGAAAAACAATGAGATAAAGAAGAGAA [CACACA_negctrl_site804]”, for which the “gcPBM binding intensity (ln)” value is 7.05.

Turning to “TTTAATTATTTATTTTGTACATATATTATATATATA [XGTACX_site5760]”, the “gcPBM binding intensity (ln)” value came out at 7.71.

For the sequence “AAAAGAAAAATATTCACACATATAAATAATATATAA [CACACA_site4201]”, the “gcPBM binding intensity (ln)” value was determined as 6.58.

For the sequence “TTATATTAATATTATATTTAAAAATAAAATATAAAT [TGCATGCA_negctrl_site79]”, the “gcPBM binding intensity (ln)” value came out at 6.84.

With “TATTTATATATTTGTTGTACGTATTTATATATTCTT [XGTACX_site3622]”, the “gcPBM binding intensity (ln)” value is 7.09.

Turning to “TTTAAAAAAAGCAGTACATGCAAAATAATAACAAGC [TGCATGCA_site392]”, the “gcPBM binding intensity (ln)” value is 7.58.

Regarding “TAAAAAAATATTACATGTACATAAAATATATATATA [XGTACX_site4633]”, the “gcPBM binding intensity (ln)” value came to 8.52.

“CAATTATATAATTGAAGTACTAGGAAAGATATATAT [XGTACX_site5459]”: the “gcPBM binding intensity (ln)” value came out at 7.3.

For the sequence “AATTAAATTCGGTACTGTACATTTCAAAAATATACG [XGTACX_site48]”, the “gcPBM binding intensity (ln)” value was found to be 7.02.

Take “CTTAAATTTTACTGAAGTACAAAATCGGTTCAATGA [XGTACX_site3292]”: the “gcPBM binding intensity (ln)” value was determined as 6.89.

As for “TATACATATTTTTTTTGTACATATATAATATATATA [XGTACX_site2399]”, the “gcPBM binding intensity (ln)” value worked out at 7.43.

“GGGAAAAAAAAAAGCACACATACGTAAATATATAAC [CACACA_site226]”: the “gcPBM binding intensity (ln)” value came out at 7.03.

In the case of “ATGTGTTAAAAATGCACACAAAAAAATATACATATA [CACACA_site295]”, the “gcPBM binding intensity (ln)” value turned out to be 7.35.

Take “ACATGTGAACATTCAATGCACACGATGTAATTATAC [CACACA_site14]”: the “gcPBM binding intensity (ln)” value was 7.64.

Regarding “ATATTATATATATACACACACACATGCATGCACCTA [CACACA_site106]”, the “gcPBM binding intensity (ln)” value turned out to be 11.1.

Take “TTTTTTAAATATATGGTGCATAGAAAGATATTATAC [GTGCAC_site9984]”: the “gcPBM binding intensity (ln)” value is 10.

“TTTTTTTTTTTTTTATGTACACATCTAAAAAAAAGG [XGTACX_site2067]”: the “gcPBM binding intensity (ln)” value was found to be 7.43.

Regarding “GCCCCCTAAAAAATTACACACGAAAAAAATGAATTT [CACACA_site9128]”, the “gcPBM binding intensity (ln)” value worked out at 8.47.

Regarding “TAAGTATAAAAAAATAGTACAATTATGAAATATCGT [XGTACX_site2529]”, the “gcPBM binding intensity (ln)” value was determined as 7.14.

Take “GGTCTAACAACATGCGCACACACATGAATATTCATA [CACACA_site1539]”: the “gcPBM binding intensity (ln)” value came to 8.12.

For “TTTAACAAGTTAAACACACATACATATATACATATA [CACACA_site2536]”, the “gcPBM binding intensity (ln)” value came to 6.87.

With “TATAAAAATATATATATATATATATATATAATATGT [TGCATGCA_negctrl_site85]”, the “gcPBM binding intensity (ln)” value came out at 7.59.

In the case of “TTAAAAAAAAAACACACACACATACCCATATATATA [CACACA_site5768]”, the “gcPBM binding intensity (ln)” value was 7.38.

On to “ATTTGTTCCTTGGGAGTTTACTTTTTTTTAATTTTA [CACACA_negctrl_site638]”, for which the “gcPBM binding intensity (ln)” value was 6.88.

Regarding “TTCTTTTTAATTAATACACACACACCCATATATATA [CACACA_site8719]”, the “gcPBM binding intensity (ln)” value came out at 7.57.

Regarding “AACAAAATTGAAGGAACACACATACATATTTATATA [CACACA_site6227]”, the “gcPBM binding intensity (ln)” value worked out at 6.78.

On to “AAAAAATTAGATTATGCACACACACTAATAAATAAT [CACACA_site8604]”, for which the “gcPBM binding intensity (ln)” value stood at 8.7.

Consider “TTTATTTAAGAAAAATGTACAGGTTCATTTCATAAT [XGTACX_site27]”, for which the “gcPBM binding intensity (ln)” value came out at 6.86.

With “CATATAAATACATGCACACAAAAATATCAATACATT [CACACA_site2392]”, the “gcPBM binding intensity (ln)” value is 7.25.

Regarding “ATAAATACATATGTGTGTACACATTATATATATATA [XGTACX_site1486]”, the “gcPBM binding intensity (ln)” value came to 9.06.

In the case of “GAAAAATTAAAACCTACACACACATTTAAAAAAAAA [CACACA_site9005]”, the “gcPBM binding intensity (ln)” value came to 6.88.

Regarding “TATATATTACATACATGTACCCAAAAAAAAAAAAAA [XGTACX_site1168]”, the “gcPBM binding intensity (ln)” value came out at 7.02.

“ATATATATATAATCATCACACATGCAGCCCTGATGA [CACACA_site5500]”: the “gcPBM binding intensity (ln)” value stood at 8.79.
